Reference: PubChem BioAssay AID651820 (National Center for Advancing Translational Sciences (NCATS), 2012)
Several values for one entry are separate records, joined by “and”; a condition that tells them apart may be missing. Equal values may be shown once. About 12,000 (3.5%) of roughly 340,000 compounds were called active. The shares of active, inactive and inconclusive entries below differ from those in the screen. Calls follow the shape of the dose curve; as a rule, active = well fitted inhibition curve with a large enough effect; inconclusive = small, poorly fitted or top-dose-only effect, or another doubt; inactive = no such curve, though single readings can be large or run the other way. Potencies of inconclusive entries are doubtful fits and often do not repeat.

Assay: qHTS Assay for Inhibitors of Hepatitis C Virus (HCV)
Details: Huh7.5.1 HCVcc-Cre (HCVcc is cell-culture hepatitis C virus) infection, luciferase reporter, 44 h; activity change, negative = inhibition: at 41.8 µM (top of the series) unless noted
Summary of the method: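 Infectious HCV cell culture screen: compound-treated cells (1,000/well, pre-plated 4 h) are infected with HCVcc-Cre at roughly 0.5 moi and grown 44 h. Infection is quantified by luciferase signal after 15 min substrate incubation at room temperature.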
% is scaled to controls: 0 for no effect and ±100 for the full control effect; potency is read from the fitted curve at half-maximal effect; tags tell the direction and shape of the fitted curve.

Row | Compound | activity change, negative = inhibition | Potency
1 | Cc1onc(NC(=O)NC(=O)c2ccccc2F)c1Br | inactive: 5.99% | –
2 | Cc1cc(OCC(=O)N[C@@H](CSCc2ccccc2)C(=O)O)c2c(C)c(C)c(=O)oc2c1 | inactive: 7.29% | –
3 | CC(C)OCCCNC(=O)c1ccc(NC(=O)C2=CSCCO2)cc1 | inactive: 1.31% | –
4 | CCN1CCN(Cc2ccc(NC(=O)c3cc(NC(=O)c4cncc(-c5cccs5)c4)cc(OC)c3)cc2C(F)(F)F)CC1 | – | inconclusive: 12.6 µM [inhibitor, partial curve, poor fit]
5 | O=C(COc1cccc(C(F)(F)F)c1)Nc1ccc(S(=O)(=O)N2CCCCC2)cc1 | – | active: 25.1 µM
6 | Cc1c(C(O)CN2CCN(Cc3ccc4c(c3)OCO4)CC2)c2ccccc2n1C (stereo unspecified) | – | active: 17.8 µM
7 | O=C(OCc1nnc(-c2ccc([N+](=O)[O-])cc2)o1)C1CCN(C(=O)c2ccc(F)cc2)CC1 | inactive: 0.229% | –
8 | C=CCNc1ncnc2c1[nH]c1ccc(Cl)cc12 | – | inconclusive: 31.6 µM [inhibitor, single point]
9 | CCCCC(=O)Nc1ccc(NC(=O)C2CC2)nc1 | inactive: -7.63% | –
10 | COc1cc2c(cc1OC)CN(C(=O)c1nn(Cc3ccccc3)c(=O)c3ccccc13)CC2 | – | active: 10 µM
11 | O=S(=O)(c1ccc2ccccc2c1)N1CCN(c2ccc(O)cc2)CC1 | – | inconclusive: 11.2 µM [inhibitor, partial curve]
12 | CC(=O)Nc1ccc(C(=O)N2CCN(S(=O)(=O)c3ccc4c(c3)OCCCO4)CC2)cc1 | – | inconclusive: 5.01 µM [inhibitor, partial curve]
13 | O=C(C1CCN(c2nnc(-n3cccc3)s2)CC1)N1CCN(Cc2ccc3c(c2)OCO3)CC1 | – | inactive and inconclusive: 25.1 µM [inhibitor, single point]
14 | CC(C)N1CCC(N2CCN(Cc3ccc4nsnc4c3)CC2CCO)CC1 (stereo unspecified) | – | inconclusive: 14.1 µM [inhibitor, single point]
15 | Cc1ccc(OCC(=O)Nc2cccc(S(=O)(=O)N3CCCCC3)c2)c([N+](=O)[O-])n1 | – | inconclusive: 31.6 µM [inhibitor, single point]
16 | Nc1cccc(-c2cn(-c3cc4cc(C#CC5(O)CCCCC5)ccc4oc3=O)nn2)c1 | inactive: 3.43% | –
17 | CCC(=O)N(C)CCc1cc2c(c(OC)c1/C=N/NC(=O)[C@H]1C[C@@H]1c1ccccc1)OCO2 | – | inconclusive: 25.1 µM [inhibitor, single point]
18 | CSc1ccc(S(=O)(=O)Nc2ccc3c(c2)OCCO3)cc1 | – | inconclusive: 11.2 µM [inhibitor, single point]
19 | CC(OC(=O)/C=C/c1ccco1)C(=O)Nc1cccc([N+](=O)[O-])c1 (stereo unspecified) | – | inconclusive: 31.6 µM [inhibitor, single point]
20 | N#Cc1c(-c2ccco2)cc(-c2cccnc2)nc1N | – | active: 11.2 µM
21 | CC1=CC(C)(C)n2c(O)c(C3=NC(=S)NC3=O)c3cc(OC(=O)c4cccc5ccccc45)cc1c32 | – | inconclusive: 10 µM [inhibitor, single point]
22 | O=C(c1ccc(N2CCCC2)c([N+](=O)[O-])c1)N1CCN(S(=O)(=O)c2ccccc2)CC1 | – | active: 14.1 µM

Row | Compound | activity change, negative = inhibition | Potency
23 | COc1cccc([C@@H]2Oc3ccc(OC)cc3C(=O)[C@H]2OC(=O)Nc2cc(OC)c(OC)c(OC)c2)c1 | – | inconclusive: 7.94 µM [inhibitor, partial curve]
24 | Clc1ccc(C2=Nn3c(nnc3-c3n[nH]c4c3CCC4)SC2)cc1 | – | inconclusive: 1 µM [inhibitor, full curve]
25 | O=C(C1=C[C@@H](c2csc3ccccc23)C[C@@H](OCc2ccc(CO)cc2)O1)N1CCN(Cc2ccccc2)CC1 | – | inconclusive: 31.6 µM [inhibitor, single point]
26 | COc1cc(C(N)=O)cc(Br)c1OCc1ccccc1 | – | inconclusive: 31.6 µM [inhibitor, single point]
27 | CCCCCCNS(=O)(=O)c1ccc(NC(=O)C2CCCO2)cc1 (stereo unspecified) | – | inconclusive: 25.1 µM [inhibitor, single point]
28 | CCn1nnc2cc(C(=O)Nc3cc(OC)cc(OC)c3)ccc21 | – | inconclusive: 4.47 µM [inhibitor, partial curve]
29 | O=C(CCn1nnc2ccccc21)Nc1nnc(COc2ccc(F)cc2)s1 | inactive: -7.12% | –
30 | CCOC(=O)/C(C#N)=C(C)/C=C1\Sc2ccccc2N1CC | – | inconclusive: 31.6 µM [inhibitor, partial curve]
31 | COc1cc(NC(=S)N2CCN(C/C=C/c3ccccc3)CC2)cc(OC)c1 | – | inconclusive: 20 µM [inhibitor, single point]
32 | CCn1nnnc1SCC(=O)c1ccc(NC(C)=O)cc1 | inactive: -10.9% | –
33 | CC(NC(=O)COC(=O)c1ccc(Br)o1)c1ccccc1 (stereo unspecified) | inactive: -4.91% | –
34 | CCOc1c(OC)ccc2c3c(c(=O)oc12)CCCC3 | – | inconclusive: 8.91 µM [inhibitor, partial curve, poor fit]
35 | CCC(C)(C)NC(=O)C(c1ccc(O)cc1)N(CCOC)C(=O)CCC(=O)Nc1nccs1 (stereo unspecified) | inactive: 2.41% | –
36 | Cc1nn(C)c(C)c1NS(=O)(=O)c1ccc(N2CCCC2=O)cc1 | – | inconclusive: 10 µM [inhibitor, partial curve]
37 | CCOC(=O)c1cc(C(=O)Nc2ccc(C)c(F)c2)nn1C | – | inconclusive: 31.6 µM [inhibitor, single point]
38 | C[C@H](NC(=O)c1[nH]cnc1C(=O)Nc1ccc(CNC(=O)OC(C)(C)C)cc1)C(=O)OC(C)(C)C | – | inconclusive: 22.4 µM [inhibitor, single point]
39 | NS(=O)(=O)c1ccc(CCNC(=O)c2ccc([N+](=O)[O-])s2)cc1 | – | inconclusive: 31.6 µM [inhibitor, single point]
40 | Cc1cc2oc(=O)cc(CN3CCN(S(=O)(=O)c4cccs4)CC3)c2cc1C(C)C | – | inconclusive: 2.24 µM [inhibitor, full curve, poor fit]
41 | COc1cccc(CNc2ccc(S(=O)(=O)N3CCCC3)cn2)c1 | – | inconclusive: 14.1 µM [inhibitor, single point]
42 | COc1ccc(OC)c(/C=N/NC(=O)c2cc3c(OC)cccc3[nH]2)c1 | – | inconclusive: 12.6 µM [inhibitor, partial curve]
43 | CCOc1ccc(NC(=O)CN(C)C(=O)c2cc(C)nc3ccccc23)cc1OCC | – | inconclusive: 31.6 µM [inhibitor, single point]
44 | CCOC(=O)[C@@H]1[C@H]2COc3ccccc3[C@H]2N2C(=O)N(c3ccc(Cl)cc3)C(=O)[C@@]12C | – | inconclusive: 2.24 µM [inhibitor, full curve]

Row | Compound | activity change, negative = inhibition | Potency
45 | COc1ccc(C2=NN(C(=O)CSc3nc(=O)n4ccc(C)cc4n3)C(c3ccc(C)cc3)C2)cc1 (stereo unspecified) | – | inconclusive: 10 µM [inhibitor, single point]
46 | COc1ccc(-c2nc3ccccn3c2Cl)cc1 | – | inconclusive: 22.4 µM [inhibitor, single point]
47 | Cc1cc(=O)oc(C)c1C(=O)NCCC(C)C | inactive: 14.7% | –
48 | CCn1c(=N)c(C(=O)NCCCOC)cc2c(=O)n3cccc(C)c3nc21 | – | inconclusive: 14.1 µM [inhibitor, single point]
49 | CC(C)(CNC(=O)c1cc([N+](=O)[O-])ccc1N1CCC(Cc2ccccc2)CC1)N1CCOCC1 | – | inconclusive: 5.62 µM [inhibitor, partial curve]
50 | CS(=O)(=O)c1nc(-c2ccccc2)cc(-c2ccccc2)c1C#N | – | active: 28.2 µM
51 | COc1ccc(S(=O)(=O)N(C)c2ccc(C(=O)N3CCC(C(N)=O)CC3)cc2)cc1OC | – | inconclusive: 5.62 µM [inhibitor, single point]
52 | COc1cccc(NC(=O)CN(C)C(=O)c2ccc(COc3ccccc3)cc2)c1 | – | inconclusive: 22.4 µM [inhibitor, single point]
53 | CN(c1ccc(C(=O)N2CCCCCC2)cc1)S(=O)(=O)c1ccccc1 | – | inconclusive: 22.4 µM [inhibitor, single point]
54 | Cc1sc(NC(=O)c2ccc(OCC(C)C)cc2)c(C(N)=O)c1-c1ccc(Cl)cc1Cl | – | inconclusive: 12.6 µM [inhibitor, partial curve]
55 | CCN(CC)CCNC(=S)Nc1ccc2nc(N3CCN(CC)CC3)cc(C)c2c1 | – | inconclusive: 7.08 µM [inhibitor, single point]
56 | CCNS(=O)(=O)c1cc(Br)ccc1OC | inactive: 3.93% | –
57 | Cc1ccc(OCC(=O)N(Cc2nnc(-c3ccccc3Cl)o2)C2CC2)cc1C | – | inconclusive: 10 µM [inhibitor, partial curve]
58 | S=C(NCC1CCCO1)NC12CC3CC(CC(C3)C1)C2 (stereo unspecified) | inactive: 8.97% | –
59 | C(=N\Nc1cc(N2CCCCC2)ncn1)/c1ccco1 | inactive: -1.9% | –
60 | Cc1ccc(NC(=O)c2ccc(C#CC3(O)CCCCC3)cc2)cc1C | – | inconclusive: 0.501 µM [inhibitor, partial curve, poor fit]
61 | FC(F)(F)c1ccccc1NC(=S)NC1CCN(Cc2ccccc2)CC1 | inactive: -18.6% | –
62 | COc1ccccc1-c1c(C)nn2c(N)c(-c3ccccc3)cnc12 | – | inconclusive: 22.4 µM [inhibitor, single point]
63 | COc1ccc(-n2c(COc3cccc4ccccc34)nnc2SCC#N)cc1 | – | inconclusive: 31.6 µM [inhibitor, single point]
64 | COc1ccc([N+](=O)[O-])cc1NCC(=O)Nc1cccc(S(=O)(=O)N2CCCC2)c1 | – | inconclusive: 11.2 µM [inhibitor, partial curve]
65 | CCOc1ccc(-c2c(C(=O)N/N=C/c3cccs3)nnn2-c2nonc2N)cc1 | inactive: -4.9% | –
66 | CCOC(=O)[C@H]1[C@H]2COc3ccc(Cl)cc3[C@@H]2N2C(=O)c3ccc(C)cc3NC(=O)[C@@]12C | – | inconclusive: 11.2 µM [inhibitor, single point]
